In the supplement of paper PMC8728848:
Some of the results follow.

What was measured:
Assay in all cases: glycan array binding signal (z-score within array); higher = stronger binding
Details in all cases: glycan notation: IUPAC condensed, linker removed
[1] = biological target: Gal(a1-3)Gal(b1-4)[Fuc(a1-3)]GlcNAc
How it was run: (§1)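 From the Consortium for Functional Glycomics database, 3228 arrays were curated, keeping only those whose protein sequence was available. Binding is given as a within-array Z-score averaged across arrays sharing a protein sequence and across linkers. Negative Z-scores can be read as non-binding.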

[2] = biological target: Gal(a1-3)Gal(b1-4)[Fuc(a1-3)]GlcNAc(b1-2)Man(a1-3)[Gal(a1-3)Gal(b1-4)[Fuc(a1-3)]GlcNAc(b1-2)Man(a1-6)]Man(b1-4)GlcNAc(b1-4)GlcNAc
How it was run: as §1

Gal(a1-3)GalNAc = biological target: Gal(a1-3)GalNAc
How it was run: as §1

Gal(a1-3)GlcNAc = biological target: Gal(a1-3)GlcNAc
How it was run: as §1

[3] = biological target: Gal(a1-3)[Gal(a1-4)]Gal(b1-4)GlcNAc
How it was run: as §1

[4] = biological target: Gal(a1-4)Gal(b1-3)GlcNAc(b1-2)Man(a1-3)[Gal(a1-4)Gal(b1-3)GlcNAc(b1-2)Man(a1-6)]Man(b1-4)GlcNAc(b1-4)GlcNAc
How it was run: as §1

Gal(a1-4)Gal(b1-4)Gal = biological target: Gal(a1-4)Gal(b1-4)Gal
How it was run: as §1

Gal(a1-4)Gal(b1-4)GalNAc = biological target: Gal(a1-4)Gal(b1-4)GalNAc
How it was run: as §1

Gal(a1-4)Gal(b1-4)Glc = biological target: Gal(a1-4)Gal(b1-4)Glc
How it was run: as §1

Gal(a1-4)Gal(b1-4)GlcNAc = biological target: Gal(a1-4)Gal(b1-4)GlcNAc
How it was run: as §1

[5] = biological target: Gal(a1-4)Gal(b1-4)GlcNAc(b1-2)Man(a1-3)[Gal(a1-4)Gal(b1-4)GlcNAc(b1-2)Man(a1-6)]Man(b1-4)GlcNAc(b1-4)GlcNAc
How it was run: as §1

[6] = biological target: Gal(a1-4)Gal(b1-4)GlcNAc(b1-3)Gal(b1-4)Glc
How it was run: as §1

Gal(a1-4)GlcNAc = biological target: Gal(a1-4)GlcNAc
How it was run: as §1

Gal(a1-6)Glc = biological target: Gal(a1-6)Glc
How it was run: as §1

Gal(b1-2)Gal = biological target: Gal(b1-2)Gal
How it was run: as §1

Gal(b1-3)Gal = biological target: Gal(b1-3)Gal
How it was run: as §1

Gal(b1-3)Gal(b1-4)GlcNAc = biological target: Gal(b1-3)Gal(b1-4)GlcNAc
How it was run: as §1

Gal(b1-3)GalNAc = biological target: Gal(b1-3)GalNAc
How it was run: as §1

[7] = biological target: Gal(b1-3)GalNAc(a1-3)[Fuc(a1-2)]Gal(b1-4)Glc
How it was run: as §1

[8] = biological target: Gal(b1-3)GalNAc(a1-3)[Fuc(a1-2)]Gal(b1-4)GlcNAc
How it was run: as §1

Gal(b1-3)GalNAc(b1-3)Gal = biological target: Gal(b1-3)GalNAc(b1-3)Gal
How it was run: as §1

[9] = biological target: Gal(b1-3)GalNAc(b1-3)Gal(a1-4)Gal(b1-4)Glc
How it was run: as §1

[10] = biological target: Gal(b1-3)GalNAc(b1-3)Gal(b1-4)Glc
How it was run: as §1

[11] = biological target: Gal(b1-3)GalNAc(b1-3)Gal(b1-4)GlcNAc
How it was run: as §1

[12] = biological target: Gal(b1-3)GalNAc(b1-4)Gal(b1-4)Glc
How it was run: as §1

[13] = biological target: Gal(b1-3)GalNAc(b1-4)[Neu5Ac(a2-3)]Gal(b1-4)Glc
How it was run: as §1

Gal(b1-3)GlcNAc = biological target: Gal(b1-3)GlcNAc
How it was run: as §1

[14] = biological target: Gal(b1-3)GlcNAc(a1-3)Gal(b1-4)GlcNAc
How it was run: as §1

[15] = biological target: Gal(b1-3)GlcNAc(a1-6)Gal(b1-4)GlcNAc
How it was run: as §1

Gal(b1-3)GlcNAc(b1-2)Man = biological target: Gal(b1-3)GlcNAc(b1-2)Man
How it was run: as §1

[16] = biological target: Gal(b1-3)GlcNAc(b1-2)Man(a1-3)[Gal(b1-3)GlcNAc(b1-2)Man(a1-6)]Man(b1-4)GlcNAc(b1-4)GlcNAc
How it was run: as §1

[17] = biological target: Gal(b1-3)GlcNAc(b1-2)Man(a1-3)[Gal(b1-3)GlcNAc(b1-2)Man(a1-6)]Man(b1-4)GlcNAc(b1-4)[Fuc(a1-6)]GlcNAc
How it was run: as §1

[18] = biological target: Gal(b1-3)GlcNAc(b1-2)Man(a1-3)[GlcNAc(b1-4)][Gal(b1-3)GlcNAc(b1-2)Man(a1-6)]Man(b1-4)GlcNAc(b1-4)GlcNAc
How it was run: as §1

[19] = biological target: Gal(b1-3)GlcNAc(b1-2)[Gal(b1-3)GlcNAc(b1-6)]Man(a1-6)[Gal(b1-3)GlcNAc(b1-2)Man(a1-3)]Man(b1-4)GlcNAc(b1-4)GlcNAc
How it was run: as §1

[20] = biological target: Gal(b1-3)GlcNAc(b1-3)Gal(b1-3)GlcNAc
How it was run: as §1

[21] = biological target: Gal(b1-3)GlcNAc(b1-3)Gal(b1-4)Glc
How it was run: as §1

[22] = biological target: Gal(b1-3)GlcNAc(b1-3)Gal(b1-4)GlcNAc
How it was run: as §1

[23] = biological target: Gal(b1-3)GlcNAc(b1-3)Gal(b1-4)GlcNAc(b1-2)Man(a1-3)[Gal(b1-3)GlcNAc(b1-3)Gal(b1-4)GlcNAc(b1-2)Man(a1-6)]Man(b1-4)GlcNAc(b1-4)GlcNAc
How it was run: as §1

[24] = biological target: Gal(b1-3)GlcNAc(b1-3)Gal(b1-4)GlcNAc(b1-2)[Gal(b1-3)GlcNAc(b1-3)Gal(b1-4)GlcNAc(b1-6)]Man(a1-6)[Gal(b1-3)GlcNAc(b1-3)Gal(b1-4)GlcNAc(b1-2)Man(a1-3)]Man(b1-4)GlcNAc(b1-4)[Fuc(a1-6)]GlcNAc
How it was run: as §1

[25] = biological target: Gal(b1-3)GlcNAc(b1-3)Gal(b1-4)GlcNAc(b1-3)Gal(b1-4)GlcNAc(b1-2)[Gal(b1-3)GlcNAc(b1-3)Gal(b1-4)GlcNAc(b1-3)Gal(b1-4)GlcNAc(b1-6)]Man(a1-6)[Gal(b1-3)GlcNAc(b1-3)Gal(b1-4)GlcNAc(b1-3)Gal(b1-4)GlcNAc(b1-2)Man(a1-3)]Man(b1-4)GlcNAc(b1-4)[Fuc(a1-6)]GlcNAc
How it was run: as §1

[26] = biological target: Gal(b1-3)GlcNAc(b1-3)Gal(b1-4)GlcNAc(b1-6)[Gal(b1-3)GlcNAc(b1-3)]Gal(b1-4)Glc
How it was run: as §1

[27] = biological target: Gal(b1-3)GlcNAc(b1-3)Gal(b1-4)[Fuc(a1-3)]GlcNAc
How it was run: as §1

[28] = biological target: Gal(b1-3)GlcNAc(b1-3)Gal(b1-4)[Fuc(a1-3)]GlcNAc(b1-6)[Gal(b1-3)GlcNAc(b1-3)]Gal(b1-4)Glc
How it was run: as §1

[29] = biological target: Gal(b1-3)GlcNAc(b1-3)GalNAc
How it was run: as §1

[30] = biological target: Gal(b1-3)GlcNAc(b1-6)Gal(b1-4)GlcNAc
How it was run: as §1

B1: OVGAL11 (Ovis aries), AAF64320 (protein)
chain: MDSLPNPYLQSVSLTVCYMVKIKANLLSAFGKNPELQVDFGTGTGQGGNIPFRFWYCDGMVVMNTFTDGSWQKEEKVLTDAFVPGQPFELQFLVLEKEYQVFVKNKPICQFAHRLPLQSVKMLDVRGDIVLTSVDTL
Question: With B1 as the binder, how does the “glycan array binding signal (z-score)” value [1] read?
Answer: Its value is -0.044.

Question: What about the “glycan array binding signal (z-score)” value [2] of the same binder?
Answer: Its value is 0.001.

Question: And the “glycan array binding signal (z-score)” value (Gal(a1-3)GalNAc)?
Answer: Its value is -0.076.

Question: And the “glycan array binding signal (z-score)” value (Gal(a1-3)GlcNAc)?
Answer: Its value is 0.088.

Question: What about the “glycan array binding signal (z-score)” value [3] of the same binder?
Answer: The value was -0.197.

Question: What about the “glycan array binding signal (z-score)” value [4] of the same binder?
Answer: The value was -0.043.

Question: What about the “glycan array binding signal (z-score)” value (Gal(a1-4)Gal(b1-4)Gal) of the same binder?
Answer: The value was 0.154.

Question: What about the “glycan array binding signal (z-score)” value (Gal(a1-4)Gal(b1-4)GalNAc) of the same binder?
Answer: The value was -0.076.

Question: And the “glycan array binding signal (z-score)” value (Gal(a1-4)Gal(b1-4)Glc)?
Answer: The value was -0.104.

Question: And the “glycan array binding signal (z-score)” value (Gal(a1-4)Gal(b1-4)GlcNAc)?
Answer: Its value is -0.116.

Question: What about the “glycan array binding signal (z-score)” value [5] of the same binder?
Answer: Its value is -0.053.

Question: And the “glycan array binding signal (z-score)” value [6]?
Answer: The value was -0.12.

Question: And the “glycan array binding signal (z-score)” value (Gal(a1-4)GlcNAc)?
Answer: The value was -0.228.

Question: And the “glycan array binding signal (z-score)” value (Gal(a1-6)Glc)?
Answer: Its value is 0.612.

Question: And the “glycan array binding signal (z-score)” value (Gal(b1-2)Gal)?
Answer: The value was -0.23.

Question: What about the “glycan array binding signal (z-score)” value (Gal(b1-3)Gal) of the same binder?
Answer: Its value is -0.03.

Question: What about the “glycan array binding signal (z-score)” value (Gal(b1-3)Gal(b1-4)GlcNAc) of the same binder?
Answer: Its value is -0.063.

Question: And the “glycan array binding signal (z-score)” value (Gal(b1-3)GalNAc)?
Answer: The value was -0.167.

Question: What about the “glycan array binding signal (z-score)” value [7] of the same binder?
Answer: The value was -0.1.

Question: And the “glycan array binding signal (z-score)” value [8]?
Answer: The value was -0.059.

Question: What about the “glycan array binding signal (z-score)” value (Gal(b1-3)GalNAc(b1-3)Gal) of the same binder?
Answer: Its value is -0.06.

Question: And the “glycan array binding signal (z-score)” value [9]?
Answer: The value was -0.219.

Question: And the “glycan array binding signal (z-score)” value [10]?
Answer: Its value is -0.187.

Question: And the “glycan array binding signal (z-score)” value [11]?
Answer: Its value is -0.304.

Question: And the “glycan array binding signal (z-score)” value [12]?
Answer: Its value is -0.289.

Question: And the “glycan array binding signal (z-score)” value [13]?
Answer: The value was 1.62.

Question: And the “glycan array binding signal (z-score)” value (Gal(b1-3)GlcNAc)?
Answer: The value was -0.093.

Question: And the “glycan array binding signal (z-score)” value [14]?
Answer: Its value is -0.099.

Question: What about the “glycan array binding signal (z-score)” value [15] of the same binder?
Answer: Its value is -0.11.

Question: And the “glycan array binding signal (z-score)” value (Gal(b1-3)GlcNAc(b1-2)Man)?
Answer: Its value is -0.023.

Question: What about the “glycan array binding signal (z-score)” value [16] of the same binder?
Answer: Its value is -0.087.

Question: What about the “glycan array binding signal (z-score)” value [17] of the same binder?
Answer: The value was -0.047.

Question: What about the “glycan array binding signal (z-score)” value [18] of the same binder?
Answer: The value was -0.055.

Question: What about the “glycan array binding signal (z-score)” value [19] of the same binder?
Answer: The value was -0.102.

Question: What about the “glycan array binding signal (z-score)” value [20] of the same binder?
Answer: Its value is -0.065.

Question: What about the “glycan array binding signal (z-score)” value [21] of the same binder?
Answer: Its value is -0.117.

Question: And the “glycan array binding signal (z-score)” value [22]?
Answer: The value was -0.059.

Question: What about the “glycan array binding signal (z-score)” value [23] of the same binder?
Answer: The value was -0.054.

Question: What about the “glycan array binding signal (z-score)” value [24] of the same binder?
Answer: The value was -0.06.

Question: What about the “glycan array binding signal (z-score)” value [25] of the same binder?
Answer: The value was 0.112.

Question: What about the “glycan array binding signal (z-score)” value [26] of the same binder?
Answer: The value was -0.113.

Question: And the “glycan array binding signal (z-score)” value [27]?
Answer: Its value is -0.014.

Question: And the “glycan array binding signal (z-score)” value [28]?
Answer: Its value is -0.069.

Question: What about the “glycan array binding signal (z-score)” value [29] of the same binder?
Answer: The value was -0.116.

Question: And the “glycan array binding signal (z-score)” value [30]?
Answer: The value was -0.118.
